Among the data in the RNAGym collection of RNA variant scans (doi:10.1093/nar/gkz1192) are self-cleavage values, retold here.

The labels stand for the following.
B1: CPEB3 Ribozyme (parent)
chain: UAACAGGGGGCCACAGCAGAAGCGUUCACGUCGCAGCCCCUGUCAGAUUCUGGUGAAUCUGCGAAUUCUGCUGUAUAUCUC

Read counts are not given, so values of variants with three or more changes are uncertain.

The data set covers variants of B1. Kind of data set: self-cleavage, relative activity (ratio to wild type); higher = more cleavage; in vitro, sequencing. The method in brief:
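Relative activity compares each variant's cleaved/total read fraction with that of the unmutated ribozyme. To get these fractions, barcoded CPEB3 ribozyme libraries from rounds of error-prone PCR were transcribed with T7 RNA polymerase for 5 hours at 37°C and then given 15 min of DNase I treatment before EDTA was added. The RNAs were reverse transcribed with template switching and sequenced on Illumina, and DNA sequencing linked barcodes to variants. A minimum of 5 reads applied, and three batches were averaged.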
For the variant G9A U41C A45U U48C A57U U67C U74C, the self-cleavage is 0.03.

For the variant G9A U25C G30A A35U, the self-cleavage is 0.08.

In the case of G9C A20U U25A A35G C40U U48A, the self-cleavage was 0.04.

For G9A U26A U58A, the self-cleavage stood at 0.14.

In the case of G9C A13G C81U, the self-cleavage turned out to be 0.58.

Consider G9A C34A U54C, for which the self-cleavage worked out at 0.18.

Consider G9A G10U A13U A18G A20U U43G, for which the self-cleavage turned out to be 0.08.

Take G9A A20G U25C U41A: the self-cleavage was 0.14.

As to G9C A20G U48C A56U, the self-cleavage worked out at 0.24.

As for G9A C12A G19U U66C, the self-cleavage was 0.13.

Turning to G9A A18G C38U A47U U72C A77G U80A, the self-cleavage was 0.14.

Take G9A A15G U31A A77G: the self-cleavage was found to be 0.07.

Consider G9A U41C G53A A65G U69A, for which the self-cleavage amounted to 0.1.

G9A U49C A56G U66C: the self-cleavage was 0.09.

As to G9A U31C A45U A64G, the self-cleavage stood at 0.07.

With G9A U41G G53A U54A A56G, the self-cleavage was determined as 0.37.

On to G9A G19U A35G U80C, for which the self-cleavage stood at 0.23.

Regarding G9A A56G U60A A64G U72C, the self-cleavage amounted to 0.34.

For the variant G9C U26C U72G, the self-cleavage was determined as 0.21.

In the case of G9A A15G G52U, the self-cleavage was 0.43.

With G9A A21U U25C U26G C38U U51C, the self-cleavage is 0.04.

Turning to G9C A13U C29U U43C U48C U74C, the self-cleavage was determined as 0.05.

G9C G30A C50U A56G A64G U69A: the self-cleavage worked out at 0.03.

Regarding G9A U51A A64U, the self-cleavage worked out at 0.06.

For the variant G9A A15U U74A, the self-cleavage is 0.1.

For the variant G9A A18G C40U U48C U72C U74C, the self-cleavage amounted to 0.03.

On to G9A A18G C40U U41A A57U, for which the self-cleavage was 0.11.

As for G9A A18G A35C C37U U41C G70C U80A, the self-cleavage amounted to 0.02.

As for G9A A21G G22U U26C U49C U54A A57G, the self-cleavage is 0.04.

On to G9U A28C U43G U78C, for which the self-cleavage turned out to be 0.03.

As to G9C A18G U26C A65G U67A, the self-cleavage was found to be 0.03.

As to G9U A15G A18U C38A, the self-cleavage was 0.06.

With G9A U31A A57G, the self-cleavage worked out at 0.18.

With G9A U49C U60C, the self-cleavage stood at 0.06.

In the case of G9C A20U C38U U58G A65G U74C U78C, the self-cleavage was determined as 0.02.

On to G9U A15G A57G U72C, for which the self-cleavage is 0.19.

On to G9A C17A U76C, for which the self-cleavage was 0.32.

Consider G9A A20G C32U U69A U80C, for which the self-cleavage came to 0.05.

Turning to G9A U58C U66C, the self-cleavage is 0.13.

For the variant G9U A35G A65G U66A, the self-cleavage worked out at 0.15.

G9A A21C U25C U26G U80G: the self-cleavage is 0.04.

For the variant G9C U25C A45U, the self-cleavage is 0.23.

Turning to G9A A15U A64U U67C U72A, the self-cleavage was 0.04.

As to G9A U25C U41A U48C U67C, the self-cleavage was determined as 0.05.

With G9A C12U U43C U49C A56U U58A, the self-cleavage came to 0.16.

Consider G9A U66C A77G U78C, for which the self-cleavage is 0.15.

On to G9A G53C A56G U80C, for which the self-cleavage is 0.24.

Turning to G9A C14A C39U A45U, the self-cleavage stood at 0.05.

In the case of G9A C11A G33U C37U U58A A65U, the self-cleavage turned out to be 0.04.

Regarding G9C U31C A56G U72C, the self-cleavage worked out at 0.11.

For G9A U26C A35U A47U A56G U58C U80C, the self-cleavage was 0.04.

Consider G9A A28U A65G U69C U80C, for which the self-cleavage is 0.05.

G9A U26C U78C: the self-cleavage worked out at 0.26.

G9U A35G A45G U74A: the self-cleavage turned out to be 0.17.

With G9A U26A A28G A57G, the self-cleavage turned out to be 0.16.

As to G9A A56C U58A U72C U78A, the self-cleavage worked out at 0.05.

G9U A15G A28G U80A: the self-cleavage stood at 0.39.

With G9U A15U U25C U31C U51C A56U, the self-cleavage is 0.07.

Regarding G9A A20G C68A U74G, the self-cleavage was 0.01.

In the case of G9U A35G U72A, the self-cleavage turned out to be 0.23.

Turning to G9A C37A U49C A56G U80C, the self-cleavage is 0.05.

Regarding G9U A18U U25A U43C, the self-cleavage is 0.3.

G9A A64G U78A: the self-cleavage is 0.17.

As to G9A A18G U48A, the self-cleavage stood at 0.2.

Consider G9A C11G U31A A45G U51C U66A U69C, for which the self-cleavage was found to be 0.1.

With G9A U41A U66G U78C, the self-cleavage came to 0.08.

On to G9A C29U C38A U54A G70A U78C, for which the self-cleavage came to 0.04.

G9A U43A U54C A56G U60C U69A U72A: the self-cleavage was 0.04.

Regarding G9A U25C U41C A64U C81U, the self-cleavage was 0.05.

Consider G9A A15G U54C U72C, for which the self-cleavage came to 0.14.

Take G9A U54A G63A A64C U78C: the self-cleavage was determined as 0.04.

Take G9C G10U U41A A57U A65G U76G: the self-cleavage came to 0.09.

Consider G9C A15C U51C U76G, for which the self-cleavage was 0.34.

For G9A A20G G36A U43C U48C, the self-cleavage amounted to 0.17.

With G9A A20G U41C U43A A45U G55U, the self-cleavage worked out at 0.09.

In the case of G9A A45U U58A A64G U80A, the self-cleavage was 0.04.

In the case of G9A U26C U54A, the self-cleavage was 0.21.

As for G9A C11U G24C A35G U51C A56G U78C, the self-cleavage turned out to be 0.04.

For G9C G10A U72A, the self-cleavage was 0.09.

With G9A A15U U25C U41A U48A, the self-cleavage was 0.25.

For the variant G9U A20U A35G, the self-cleavage turned out to be 0.05.

Turning to G9A U41A G61C U72G, the self-cleavage came to 0.08.

In the case of G9U A13G U66C, the self-cleavage came to 0.13.
